Data as given in USRE39130E1 (Bayer Cropscience K.K., priority 1986, dated 2006).

Test system: brown planthopper (Nilaparvata lugens) of a strain having resistance to organophosphate chemicals
Assay: Test on planthoppers: brown planthopper (spray on rice plants, kill ratio)
Type: in vivo
Conditions: sprayed rice plants, kill ratio two days later, compared with W-1, W-2 and Q-1

N#C/N=C1\NCCN1Cc1ccc(Cl)nc1 [Compound 5, 1-(2-chloro-5-pyridylmethyl)-2-cyanoiminoimidazolidine]
efficacy (kill ratio) compared with comparison compounds: considerably better efficacy
